This is one part of the list.

The labels stand for the following.
T1: UNK ZnF1-3 (human, UniProt Q9C0B0 31-174)
T1 sequence: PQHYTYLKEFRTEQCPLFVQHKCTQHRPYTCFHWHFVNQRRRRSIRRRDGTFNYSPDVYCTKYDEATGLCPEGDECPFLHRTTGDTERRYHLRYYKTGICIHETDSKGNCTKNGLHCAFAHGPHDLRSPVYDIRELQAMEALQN

B1: chr5:108714765:108714766:-_ENSG00000198961_ENST00000361557|hu_hu|motif|central (ssRNA)
RNA: GGGAGUUCUACAGUCCGACGAUCACAAGCUCCUGGAAUAUACUCUCCCUCAGAGUGAUUAUGAAGAUUUGUACUGCUUCCGGAGGUAUCCCUGCCUUCCUCACUGUGAUGUACUGCAACAAAGGAUUGACUGCUCUCAGUGGUCAACAGAGGAUUGAGCAUCA
B2: chr3:10015032:10015033:+_ENSMUSG00000027533_ENSMUST00000029046|mus_mus|mus_mus_mus_hu_True|68_78 (ssRNA)
RNA: GGGAGUUCUACAGUCCGACGAUCGUUUUUACCAUCACAAGUGAUGAUACAAUCUGGCUUGGCCAUGGCAGCCAUCUUUCGCAAAGCUAUUCCCACUCCUAGCUCCUUCAUGUAUUCAUCAAAGCCUUUGCUGUCCACCAGGCGCAACAGAGGAUUGAGCAUCA
B3: 30141188_30141308_626_CDS_ENSMUSG00000075419_ENSMUST00000100219|mouse|control|control (ssRNA)
RNA: GGGAGUUCUACAGUCCGACGAUCGAGGGCCACUGCCAUGCCAGUAGCUGCAACCACAAUGCCGAAGCGCUCGAAGUAUGGGUUCCCUGCAGUCUGGCAGCGCUCCUUCAUGACUAGCCCAAGCAAAGGCAUGACCAUGGAGGCCAACAGAGGAUUGAGCAUCA
B4: chr7:44244176:44244177:+_ENSG00000106636_ENST00000223369|hu_mus|hu_hu_hu_mus_False|18_38 (ssRNA)
RNA: GGGAGUUCUACAGUCCGACGAUCACUGUCGCUCCGGACGUAGACAUGGCAAAGAUACUCUUGUUCUUUGACAGAAGCUCUGCUGCCUUUCCCCGAGCGCUCCACAAUCAGUUGACUCGUGAAGGUCAUGAAUUCCUGCACACUCAACAGAGGAUUGAGCAUCA
B5: chr9:57400063:57400064:-_ENSMUSG00000032306_ENSMUST00000034856|mus_hu|FALSE|FALSE (ssRNA)
RNA: GGGAGUUCUACAGUCCGACGAUCCAGCCGCGCCACUUCGCUGUUGGAACCCAUCUUCCCCCAGGCAUACUGCUGCACCGCACAGGAAAGUGGGAAUACUCGCGGAGCGGCCAUGCUCGCCCCCUGCACCAGGAUUAAGCACGUCAACAGAGGAUUGAGCAUCA
B6: chr1:100327937:100327938:+_ENSG00000162688_ENST00000361915|hu_mus|FALSE|FALSE (ssRNA)
RNA: GGGAGUUCUACAGUCCGACGAUCCUCCUUUGCCACCCUUAGCCGGCUUUCCCACUCAUCGAAGGGUCCUAAGCACUUUGCUAAGAACGUCUGCAGAGUAACACAGUCCAAGGGUAACACGUGGUUAUCAACUCCAAUGCGUAACAACAGAGGAUUGAGCAUCA
B7: chr1:192983433:192983434:-_ENSG00000116750_ENST00000367455|hu_hu|motif|central (ssRNA)
RNA: GGGAGUUCUACAGUCCGACGAUCAUCACAAGGGAUUUGCAAUCACCAAAGAAGAUGCAGAUAAAAUAAACCACUCUUAAGCGGUGGAAAUUCCUAUUAAGGAAUUUUAUUAGAUUAAUAAGAAAAAUCCUUAUACCUAUUAAUCAACAGAGGAUUGAGCAUCA
B8: 2633529_2636739_1277_3pUTR_ENSG00000140992_ENST00000342085|human|control|control (ssRNA)
RNA: GGGAGUUCUACAGUCCGACGAUCGGAGUGUGAGGAGGAGGACGAAGACACCUGCAUGCAGCCAAACUGGCUCAGGAGAUUGUCAUAAUUGCCAUAGCAGUCCUCGUCGUCUUCCGACAUAGCCGGCAGGUAAGCGGUGAGCUUCAACAGAGGAUUGAGCAUCA
B9: chr16:87731977:87731978:+_ENSMUSG00000025612_ENSMUST00000026703|mus_hu|FALSE|FALSE (ssRNA)
RNA: GGGAGUUCUACAGUCCGACGAUCUGGGAUGCACUAUCAGAAUUAUUCUCCCUGACAAAUUCUUGAGUGUACUUAUAAAAGCUACUAGAAAAUAAACAAGUCCAACUAAUUUUCUCUUACAAAUAAGUCAGUGACAGAGAGAACCAACAGAGGAUUGAGCAUCA
B10: chr2:27656205:27656206:+_ENSG00000115216_ENST00000379852|hu_mus|FALSE|FALSE (ssRNA)
RNA: GGGAGUUCUACAGUCCGACGAUCACAGAAGUCAGGCCAGGAGCUAAAGAUGAGGAUUCUACCUUUGGGUCUGAGCCACUGCUGACUACUGUUUGGGACUCCCCUUCCGACAUGCUGGAAUGAACACUCAGCCUCCCGACUCCGCAACAGAGGAUUGAGCAUCA
B11: 29839812_29839932_933_CDS_ENSG00000197321_ENST00000375400|human|control|control (ssRNA)
RNA: GGGAGUUCUACAGUCCGACGAUCACCGGCACAGGUCCUGAGCCCCAUCGUCUCGGUCCCGGGGUACAGAGAACUAGCAUCUCUGCUUGACUCUUCCUGUUUGUCACUUUUUCCUCCCCGCUUCUCGACAGCAUCAGGCUCCUUCAACAGAGGAUUGAGCAUCA
B12: chr5:54662584:54662585:+_ENSG00000039123_ENST00000230640|hu_mus|FALSE|FALSE (ssRNA)
RNA: GGGAGUUCUACAGUCCGACGAUCAAUUUCUUCUACUCUUAGUAAGUUCAAAACCAUGUUAUAGGUCAGAUGGAAAGCACUGUUCAGAGGAUCAGCUGACCCCUUAAGCAGCUGCUUUCCAAUAGUUGGGCUCAUCUUCUCGUCCAACAGAGGAUUGAGCAUCA
B13: chr9:21333030:21333031:-_ENSG00000198642_ENST00000537938|hu_hu|motif|central (ssRNA)
RNA: GGGAGUUCUACAGUCCGACGAUCAAGGGGAAGUAUUAGAUCACCCAUGACGUACUGCAAAGGUGUUACACCUUAGACCGGAGAAUGAUCUGAAGGUGCUGAAAGAGGUGAUUCUCUAGAAGGUGACCCAGGGUUUUCUUCAGGCAACAGAGGAUUGAGCAUCA
B14: chr21:40768814:40768815:+_ENSG00000182093_ENST00000333781|hu_hu|FALSE|FALSE (ssRNA)
RNA: GGGAGUUCUACAGUCCGACGAUCCCAUCCUCCUGUUCAGCUGAACGGAUGAAGCACAAUAGCGACAACUUUGUUACAGACUAAAAUCCAACAGGUAAUUCCAACACCACCUGCUACUCUAGUAGGAAAGGCUACCAGGCGGUCCAACAGAGGAUUGAGCAUCA
B15: 25784004_25789866_2234_CDS_ENSG00000091490_ENST00000264868|human|control|control (ssRNA)
RNA: GGGAGUUCUACAGUCCGACGAUCAUACCAUCCCAGGCCAUUGACUGCCUGAUGCAAUCCCUUGGAAGCUGCUUUCUUCAUCAGCUCUAAGGCAAGCCGUCUGUUCUUUUUUACUCCUUGACCCUUGAAUAGCACAAUGGCAUACAACAGAGGAUUGAGCAUCA
B16: 137287219_137288168_2140_3pUTR_ENSMUSG00000041879_ENSMUST00000161189|mouse|control|control (ssRNA)
RNA: GGGAGUUCUACAGUCCGACGAUCUGUAGUCAAGAUGUCAAUGGCUGUCGCACAGAGCCCCGCAGGGAUCUUGUCUGCUGGGGCCUGCAUUAUGCUGACCAGCGUGGGAAUCAGCCUCAUCUGCAUGGGACCUUGACAGGCUUCCAACAGAGGAUUGAGCAUCA
B17: 55057811_55057931_3195_CDS_ENSMUSG00000052713_ENSMUST00000064763|mouse|control|control (ssRNA)
RNA: GGGAGUUCUACAGUCCGACGAUCCAUGCGUGAGGCACUCCCGAUGGAAGGGCUGGGGGCAUUGUCCGUGAAUGUGUAAACCUUAUCGGCCUCGGCUUUGAUGCUGGCCAUGCGGCUCUCCUGAGACUCUGACAAUCCAUUAGCCAACAGAGGAUUGAGCAUCA
B18: chr19:8913615:8913616:-_ENSMUSG00000071658_ENSMUST00000096259|mus_hu|mus_mus_mus_hu_False|1_78 (ssRNA)
RNA: GGGAGUUCUACAGUCCGACGAUCAGGGUACCAAAACCUUCUGCCUGAAAUGGGUGCCCCACCCUGCAGGGAGUUGCAGCUGAAAGUAUCUGAUGCAGAAGCAGUGACUAUACGAAAGGAGGCCCCUGGGGAGGGCCCGAGAUCCAACAGAGGAUUGAGCAUCA
B19: 70566570_70570526_580_3pUTR_ENSMUSG00000054693_ENSMUST00000067880|mouse|control|control (ssRNA)
RNA: GGGAGUUCUACAGUCCGACGAUCAAUGUAUCUCUCUGCUGGCUCAAUGUAAAACGUGCCACCACGAGUCUUGAUGAAACCUUCAAAUCUUCCAUCAAUGACAGACCCAUGACUAAAGCUUCCUUCUUCACCAUAAAUAUGUCCCAACAGAGGAUUGAGCAUCA
B20: chr1:39494447:39494448:+_ENSG00000168653_ENST00000372967|hu_mus|hu_hu_hu_mus_False|98_108 (ssRNA)
RNA: GGGAGUUCUACAGUCCGACGAUCGCAUCGACCAGCCAUCUUGUAGGGCUGUUCUGCGCUUAGGAACAUAAAGUGCCGGUCCAGGCUGAUGCCCAGCUUUUUCUGUAUGUCAAGGAAAGGCAUGGCUCUGCAGUGCCCUUGUCACAACAGAGGAUUGAGCAUCA
B21: 24167579_24190110_409_CDS_ENSG00000127863_ENST00000382263|human|control|control (ssRNA)
RNA: GGGAGUUCUACAGUCCGACGAUCGCAGUCCAGACAGGGCUUGCAUUUCUGGAAGCCCCAGUCCUCCUUGAACCUGUGCAGCCGGCACGUCACACACUGUGCAUCCUCCCCAUAGCCGAAGCCACAUUCCUUAGACAACUCCAUCAACAGAGGAUUGAGCAUCA
B22: chr7:75932113:75932114:+_ENSG00000106211_ENST00000248553|hu_hu|hu_hu_hu_mus_False|28_88 (ssRNA)
RNA: GGGAGUUCUACAGUCCGACGAUCCUGCGACCACUCAUCGGGCAACCGGGGCAGCCCGAAAGCUUGAUCGAAGAGGCGGCUGUGUGCAGGGUACCAGUCCCGGAAUGCCCAGCUGGGCGGGCUCCGCAGCAGCGAGAAGGGCACCAACAGAGGAUUGAGCAUCA

This experiment addresses T1, UNK ZnF1-3. Put plainly: nsRBNS (natural sequence RNA bind-n-seq); RBNS binding buffer (assumed for nsRBNS): 25 mM Tris pH 7.5, 150 mM KCl, 3 mM MgCl2, 0.01% Triton X-100, 500 ug/ml BSA, 20 U/ml SUPERase-In, 4 C; UNK is unkempt and MSI1 is Musashi-1; names of the RNAs are library labels; protein concentration not given here; high values mean tight binding.
Take B1: the binding signal stood at 2.2 enrichment R.

On to B2, for which the binding signal worked out at 0.783 enrichment R. With B3 the figure was 0.862 enrichment R; with B4, 0.631 enrichment R.

As to B5, the binding signal was 0.829 enrichment R.

B6 gave a binding signal of 0.641 enrichment R. With B7 the figure was 0.811 enrichment R; with B8, 0.797 enrichment R; with B9, 0.615 enrichment R. The molecule B10 gave a binding signal of 1.18 enrichment R. The result for B11 reads 1.28 enrichment R; that for B12, 0.371 enrichment R; that for B13, 0.908 enrichment R. The result for B14 reads 1.04 enrichment R; that for B15, 0.658 enrichment R; that for B16, 0.733 enrichment R. The result for B17 reads 0.932 enrichment R; that for B18, 1.33 enrichment R. Take B19: the binding signal was 0.982 enrichment R.

Consider B20, for which the binding signal was found to be 0.941 enrichment R. The result for B21 reads 1.41 enrichment R. The result for B22 reads 1.11 enrichment R.
